The source of these data is the BET-seq Pho4 binding data (Le et al. 2018).

The other results are listed elsewhere or left out. These are noisy estimates, calculated here from bound and input reads.

This assay concerns the target T1, Pho4 (S. cerevisiae) (UniProt P07270).
T1 sequence: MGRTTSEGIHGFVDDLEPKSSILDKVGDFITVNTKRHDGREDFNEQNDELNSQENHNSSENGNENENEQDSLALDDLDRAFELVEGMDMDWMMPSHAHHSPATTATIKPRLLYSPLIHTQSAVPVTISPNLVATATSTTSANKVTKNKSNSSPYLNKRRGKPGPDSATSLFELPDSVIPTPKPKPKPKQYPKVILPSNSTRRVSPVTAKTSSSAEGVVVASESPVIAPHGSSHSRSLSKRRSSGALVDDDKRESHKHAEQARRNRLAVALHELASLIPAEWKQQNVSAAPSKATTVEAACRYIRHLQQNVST
Briefly: relative binding free energy (BET-seq); higher = weaker binding. The note with it: reference: library average.
As to TTTTTCACGTGTTGAA, the “relative binding free energy” value is 0.26 kcal/mol.

In the case of AACGTCACGTGTTGGG, the “relative binding free energy” value stood at 0.13 kcal/mol.

For the sequence GGCGTCACGTGTTTAA, the “relative binding free energy” value was found to be 0.17 kcal/mol.

Turning to TGAGACACGTGTAGGT, the “relative binding free energy” value was 0.04 kcal/mol.

As to ATAGTCACGTGTGGCG, the “relative binding free energy” value was 0.12 kcal/mol.

As to TCGGGCACGTGTGGCT, the “relative binding free energy” value is -0.06 kcal/mol.

Consider GTTAGCACGTGTATAT, for which the “relative binding free energy” value is -0.06 kcal/mol.

Turning to GGACTCACGTGGTCGT, the “relative binding free energy” value worked out at 0.3 kcal/mol.

Turning to AGAGACACGTGCGGGT, the “relative binding free energy” value was -0.19 kcal/mol.

Take TGTAGCACGTGAGGTC: the “relative binding free energy” value is 0.18 kcal/mol.

Consider TTATGCACGTGCAGTG, for which the “relative binding free energy” value was -0.12 kcal/mol.

For the sequence ATGGGCACGTGGGGTA, the “relative binding free energy” value is -0.31 kcal/mol.

For AGTATCACGTGCGAGG, the “relative binding free energy” value came to 0.02 kcal/mol.

With ATGGACACGTGAGGGA, the “relative binding free energy” value came to 0.17 kcal/mol.

Take TAAAGCACGTGTGCGG: the “relative binding free energy” value was -0.02 kcal/mol.

For the sequence GTTGACACGTGGAGGT, the “relative binding free energy” value was found to be 0.09 kcal/mol.

Take GAGATCACGTGAAGGT: the “relative binding free energy” value came to 0.29 kcal/mol.

As for ATATGCACGTGCTAGT, the “relative binding free energy” value is -0.14 kcal/mol.

As for TTAGTCACGTGACTGG, the “relative binding free energy” value came to 0.19 kcal/mol.

Take TGGTGCACGTGTGATT: the “relative binding free energy” value stood at 0.19 kcal/mol.

On to GTGGTCACGTGCGGGA, for which the “relative binding free energy” value was 0.09 kcal/mol.

On to TTGTTCACGTGAAGGA, for which the “relative binding free energy” value was determined as 0.37 kcal/mol.

For the sequence GGATTCACGTGCTTTG, the “relative binding free energy” value worked out at 0.31 kcal/mol.

On to GTAGACACGTGTGGAA, for which the “relative binding free energy” value turned out to be 0.02 kcal/mol.

With GTCGTCACGTGGGTAT, the “relative binding free energy” value worked out at 0.04 kcal/mol.

Take TCTAGCACGTGTGTGC: the “relative binding free energy” value is -0.03 kcal/mol.

Take TGGTGCACGTGGGCTA: the “relative binding free energy” value is -0.26 kcal/mol.

Take AATGCCACGTGTGATG: the “relative binding free energy” value worked out at 0 kcal/mol.

On to GTCTGCACGTGGTGTC, for which the “relative binding free energy” value came out at 0.03 kcal/mol.

As for TGGGGCACGTGGTCAT, the “relative binding free energy” value was -0.21 kcal/mol.

With AGGAGCACGTGGGTTT, the “relative binding free energy” value is -0.2 kcal/mol.

Turning to TGTTACACGTGGGGGC, the “relative binding free energy” value was -0.02 kcal/mol.

In the case of GAGCTCACGTGTTTTG, the “relative binding free energy” value worked out at 0.31 kcal/mol.

Turning to GAGGTCACGTGTGTGC, the “relative binding free energy” value amounted to 0.07 kcal/mol.

As to AAATTCACGTGTGAGG, the “relative binding free energy” value was 0.4 kcal/mol.

With CAGGGCACGTGGGCTT, the “relative binding free energy” value was -0.13 kcal/mol.

As for ATATGCACGTGGTGCG, the “relative binding free energy” value is -0.02 kcal/mol.

Take AGTGCCACGTGTTGTC: the “relative binding free energy” value was -0.1 kcal/mol.

Turning to CGTTGCACGTGGAAGA, the “relative binding free energy” value was 0.09 kcal/mol.

Turning to TCTTTCACGTGTTCGT, the “relative binding free energy” value was 0.13 kcal/mol.

ATAGACACGTGGTTCG: the “relative binding free energy” value is -0.02 kcal/mol.

For the sequence ATCGTCACGTGTGTCG, the “relative binding free energy” value came out at 0.12 kcal/mol.

Consider CCGTGCACGTGATTGG, for which the “relative binding free energy” value worked out at 0.2 kcal/mol.

With CGGGACACGTGAGGTA, the “relative binding free energy” value stood at 0.27 kcal/mol.

Regarding ATAATCACGTGGGCGG, the “relative binding free energy” value was 0.02 kcal/mol.

For GTGTACACGTGATTAT, the “relative binding free energy” value was 0.15 kcal/mol.

As to CCAGTCACGTGAGGGG, the “relative binding free energy” value is 0.32 kcal/mol.

In the case of GTTGACACGTGCAGGG, the “relative binding free energy” value is -0.04 kcal/mol.

On to ATTATCACGTGGCTGT, for which the “relative binding free energy” value is -0.03 kcal/mol.

With GTGGTCACGTGACTTA, the “relative binding free energy” value came to 0.09 kcal/mol.

In the case of TATGCCACGTGCTGTT, the “relative binding free energy” value is -0.12 kcal/mol.

Take AGGTGCACGTGGAGCG: the “relative binding free energy” value is 0 kcal/mol.

In the case of TGGTGCACGTGGTGGG, the “relative binding free energy” value is -0.01 kcal/mol.

On to GGATTCACGTGGTCGG, for which the “relative binding free energy” value is 0.39 kcal/mol.

For the sequence CAGTACACGTGTTTGG, the “relative binding free energy” value was -0.06 kcal/mol.

In the case of CAGTGCACGTGGTGGT, the “relative binding free energy” value was -0.15 kcal/mol.

Regarding TAGGTCACGTGGCCGG, the “relative binding free energy” value is 0.04 kcal/mol.

As for TTTGTCACGTGTCTTA, the “relative binding free energy” value turned out to be 0.11 kcal/mol.

On to TTGGGCACGTGCTCTG, for which the “relative binding free energy” value is -0.13 kcal/mol.

Take GTGGGCACGTGGTCGT: the “relative binding free energy” value was -0.12 kcal/mol.

Regarding TGGTACACGTGACTGT, the “relative binding free energy” value turned out to be 0.16 kcal/mol.

With GCGGACACGTGGTGAG, the “relative binding free energy” value amounted to 0.17 kcal/mol.

On to TGTCACACGTGCTTGG, for which the “relative binding free energy” value was -0.05 kcal/mol.

Take TAAGGCACGTGTAGTT: the “relative binding free energy” value was 0 kcal/mol.

In the case of GTAGGCACGTGATTTT, the “relative binding free energy” value was determined as 0.1 kcal/mol.

Take CAAGGCACGTGGGGAA: the “relative binding free energy” value is -0.17 kcal/mol.

On to AAGGGCACGTGTAGCT, for which the “relative binding free energy” value was -0.16 kcal/mol.

As for AGTCGCACGTGGTGAA, the “relative binding free energy” value is -0.15 kcal/mol.

Consider CGGGCCACGTGGGGGC, for which the “relative binding free energy” value is -0.31 kcal/mol.

In the case of AGATTCACGTGGGAGT, the “relative binding free energy” value stood at 0.15 kcal/mol.

As for GTGGGCACGTGCGGCA, the “relative binding free energy” value was -0.15 kcal/mol.

As for TGTCTCACGTGTATTT, the “relative binding free energy” value is 0.25 kcal/mol.

With CGGTGCACGTGAATTA, the “relative binding free energy” value amounted to 0.34 kcal/mol.
